# The other results are listed elsewhere or left out.
# Legend:
# Test in all cases: glycan array binding signal (z-score within array); higher = stronger binding
# Conditions in all cases: glycan notation: IUPAC condensed, linker removed
# [1] = target: Gal(b1-4)GlcNAc(b1-2)[Gal(b1-4)GlcNAc(b1-6)]Man(a1-6)[GlcNAc(b1-4)][Gal(b1-4)GlcNAc(b1-2)Man(a1-3)]Man(b1-4)GlcNAc(b1-4)GlcNAc
# Outline: (§1)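 The binding signal is a Z-score computed within each array and averaged over linkers. Arrays of the same protein sequence at different concentrations or buffers were also averaged together. Data originate from 3228 arrays in the Consortium for Functional Glycomics database, kept only where the protein sequence was available.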
# [2] = target: Gal(b1-4)GlcNAc(b1-2)[Gal(b1-4)GlcNAc(b1-6)]Man(a1-6)[GlcNAc(b1-4)][Gal(b1-4)GlcNAc(b1-2)[Gal(b1-4)GlcNAc(b1-4)]Man(a1-3)]Man(b1-4)GlcNAc(b1-4)[Fuc(a1-6)]GlcNAc
# Outline: as §1
# [3] = target: Gal(b1-4)GlcNAc(b1-3)Gal(b1-3)GalNAc
# Outline: as §1
# [4] = target: Gal(b1-4)GlcNAc(b1-3)Gal(b1-3)GlcNAc
# Outline: as §1
# [5] = target: Gal(b1-4)GlcNAc(b1-3)Gal(b1-4)Glc
# Outline: as §1
# [6] = target: Gal(b1-4)GlcNAc(b1-3)Gal(b1-4)GlcNAc
# Outline: as §1
# [7] = target: Gal(b1-4)GlcNAc(b1-3)Gal(b1-4)GlcNAc(b1-2)Man(a1-3)[Gal(b1-4)GlcNAc(b1-3)Gal(b1-4)GlcNAc(b1-2)Man(a1-6)]Man(b1-4)GlcNAc(b1-4)GlcNAc
# Outline: as §1
# [8] = target: Gal(b1-4)GlcNAc(b1-3)Gal(b1-4)GlcNAc(b1-2)Man(a1-3)[Gal(b1-4)GlcNAc(b1-3)Gal(b1-4)GlcNAc(b1-2)Man(a1-6)]Man(b1-4)GlcNAc(b1-4)[Fuc(a1-6)]GlcNAc
# Outline: as §1
# [9] = target: Gal(b1-4)GlcNAc(b1-3)Gal(b1-4)GlcNAc(b1-2)[Gal(b1-4)GlcNAc(b1-3)Gal(b1-4)GlcNAc(b1-6)]Man(a1-6)[Gal(b1-4)GlcNAc(b1-3)Gal(b1-4)GlcNAc(b1-2)Man(a1-3)]Man(b1-4)GlcNAc(b1-4)GlcNAc
# Outline: as §1
# [10] = target: Gal(b1-4)GlcNAc(b1-3)Gal(b1-4)GlcNAc(b1-2)[Gal(b1-4)GlcNAc(b1-3)Gal(b1-4)GlcNAc(b1-6)]Man(a1-6)[Gal(b1-4)GlcNAc(b1-3)Gal(b1-4)GlcNAc(b1-2)Man(a1-3)]Man(b1-4)GlcNAc(b1-4)[Fuc(a1-6)]GlcNAc
# Outline: as §1
# [11] = target: Gal(b1-4)GlcNAc(b1-3)Gal(b1-4)GlcNAc(b1-3)Gal(b1-4)GlcNAc
# Outline: as §1
# [12] = target: Gal(b1-4)GlcNAc(b1-3)Gal(b1-4)GlcNAc(b1-3)Gal(b1-4)GlcNAc(b1-2)Man(a1-3)[Gal(b1-4)GlcNAc(b1-3)Gal(b1-4)GlcNAc(b1-3)Gal(b1-4)GlcNAc(b1-2)Man(a1-6)]Man(b1-4)GlcNAc(b1-4)GlcNAc
# Outline: as §1
# [13] = target: Gal(b1-4)GlcNAc(b1-3)Gal(b1-4)GlcNAc(b1-3)Gal(b1-4)GlcNAc(b1-2)Man(a1-3)[Gal(b1-4)GlcNAc(b1-3)Gal(b1-4)GlcNAc(b1-3)Gal(b1-4)GlcNAc(b1-2)Man(a1-6)]Man(b1-4)GlcNAc(b1-4)[Fuc(a1-6)]GlcNAc
# Outline: as §1
# [14] = target: Gal(b1-4)GlcNAc(b1-3)Gal(b1-4)GlcNAc(b1-3)Gal(b1-4)GlcNAc(b1-2)[Gal(b1-4)GlcNAc(b1-3)Gal(b1-4)GlcNAc(b1-3)Gal(b1-4)GlcNAc(b1-6)]Man(a1-6)[Gal(b1-4)GlcNAc(b1-3)Gal(b1-4)GlcNAc(b1-3)Gal(b1-4)GlcNAc(b1-2)Man(a1-3)]Man(b1-4)GlcNAc(b1-4)[Fuc(a1-6)]GlcNAc
# Outline: as §1
# [15] = target: Gal(b1-4)GlcNAc(b1-3)Gal(b1-4)GlcNAc(b1-3)Gal(b1-4)GlcNAc(b1-3)Gal(b1-4)GlcNAc(b1-2)Man(a1-3)[Gal(b1-4)GlcNAc(b1-3)Gal(b1-4)GlcNAc(b1-3)Gal(b1-4)GlcNAc(b1-3)Gal(b1-4)GlcNAc(b1-2)Man(a1-6)]Man(b1-4)GlcNAc(b1-4)GlcNAc
# Outline: as §1
# [16] = target: Gal(b1-4)GlcNAc(b1-3)Gal(b1-4)GlcNAc(b1-3)Gal(b1-4)GlcNAc(b1-3)Gal(b1-4)GlcNAc(b1-2)Man(a1-3)[Gal(b1-4)GlcNAc(b1-3)Gal(b1-4)GlcNAc(b1-3)Gal(b1-4)GlcNAc(b1-3)Gal(b1-4)GlcNAc(b1-2)Man(a1-6)]Man(b1-4)GlcNAc(b1-4)[Fuc(a1-6)]GlcNAc
# Outline: as §1
# [17] = target: Gal(b1-4)GlcNAc(b1-3)Gal(b1-4)GlcNAc(b1-3)Gal(b1-4)GlcNAc(b1-3)Gal(b1-4)GlcNAc(b1-2)[Gal(b1-4)GlcNAc(b1-3)Gal(b1-4)GlcNAc(b1-3)Gal(b1-4)GlcNAc(b1-3)Gal(b1-4)GlcNAc(b1-6)]Man(a1-6)[Gal(b1-4)GlcNAc(b1-3)Gal(b1-4)GlcNAc(b1-3)Gal(b1-4)GlcNAc(b1-3)Gal(b1-4)GlcNAc(b1-2)Man(a1-3)]Man(b1-4)GlcNAc(b1-4)[Fuc(a1-6)]GlcNAc
# Outline: as §1
# [18] = target: Gal(b1-4)GlcNAc(b1-3)Gal(b1-4)GlcNAc(b1-3)Gal(b1-4)GlcNAc(b1-3)Gal(b1-4)GlcNAc(b1-3)Gal(b1-4)GlcNAc(b1-2)Man(a1-3)[Gal(b1-4)GlcNAc(b1-3)Gal(b1-4)GlcNAc(b1-3)Gal(b1-4)GlcNAc(b1-3)Gal(b1-4)GlcNAc(b1-3)Gal(b1-4)GlcNAc(b1-2)Man(a1-6)]Man(b1-4)GlcNAc(b1-4)GlcNAc
# Outline: as §1
# [19] = target: Gal(b1-4)GlcNAc(b1-3)Gal(b1-4)GlcNAc(b1-3)Gal(b1-4)GlcNAc(b1-3)Gal(b1-4)GlcNAc(b1-3)Gal(b1-4)GlcNAc(b1-2)Man(a1-3)[Gal(b1-4)GlcNAc(b1-3)Gal(b1-4)GlcNAc(b1-3)Gal(b1-4)GlcNAc(b1-3)Gal(b1-4)GlcNAc(b1-3)Gal(b1-4)GlcNAc(b1-2)Man(a1-6)]Man(b1-4)GlcNAc(b1-4)[Fuc(a1-6)]GlcNAc
# Outline: as §1
# [20] = target: Gal(b1-4)GlcNAc(b1-3)Gal(b1-4)GlcNAc(b1-3)Gal(b1-4)GlcNAc(b1-3)Gal(b1-4)GlcNAc(b1-3)Gal(b1-4)GlcNAc(b1-2)[Gal(b1-4)GlcNAc(b1-3)Gal(b1-4)GlcNAc(b1-3)Gal(b1-4)GlcNAc(b1-3)Gal(b1-4)GlcNAc(b1-3)Gal(b1-4)GlcNAc(b1-6)]Man(a1-6)[Gal(b1-4)GlcNAc(b1-3)Gal(b1-4)GlcNAc(b1-3)Gal(b1-4)GlcNAc(b1-3)Gal(b1-4)GlcNAc(b1-3)Gal(b1-4)GlcNAc(b1-2)Man(a1-3)]Man(b1-4)GlcNAc(b1-4)[Fuc(a1-6)]GlcNAc
# Outline: as §1
# [21] = target: Gal(b1-4)GlcNAc(b1-3)Gal(b1-4)GlcNAc(b1-3)Gal(b1-4)GlcNAc(b1-3)Gal(b1-4)GlcNAc(b1-3)Gal(b1-4)GlcNAc(b1-3)Gal(b1-4)GlcNAc(b1-2)Man(a1-3)[Gal(b1-4)GlcNAc(b1-3)Gal(b1-4)GlcNAc(b1-3)Gal(b1-4)GlcNAc(b1-3)Gal(b1-4)GlcNAc(b1-3)Gal(b1-4)GlcNAc(b1-3)Gal(b1-4)GlcNAc(b1-2)Man(a1-6)]Man(b1-4)GlcNAc(b1-4)GlcNAc
# Outline: as §1
# [22] = target: Gal(b1-4)GlcNAc(b1-3)Gal(b1-4)GlcNAc(b1-3)GalNAc
# Outline: as §1
# [23] = target: Gal(b1-4)GlcNAc(b1-3)Gal(b1-4)GlcNAc(b1-3)[Gal(b1-4)GlcNAc(b1-3)Gal(b1-4)GlcNAc(b1-6)]GalNAc
# Outline: as §1
binder,measurement,setting,value
FimA-N1 (Actinomyces oris) (protein) MHHHHHHSSGVDLGTENLYFQSNATETPNYGNIKTDATGSLVIHKHLTGGGKDIGTPTGTAQNADDKGPAVEGVVFTAYPITDINLKDPAGWDTISNLSRTGVPDSACANPAAPTLGAHQFGTPKVSPATTKEGLATITEMPVQAYLVCETTTPGDIVQKAKPFVVTIPHPNTAAGADGQWIYDVNVYPKNEAIDVDKTIQAQK,glycan array binding signal (z-score),[1],-0.293
same,glycan array binding signal (z-score),[2],-0.29
same,glycan array binding signal (z-score),[3],-0.435
same,glycan array binding signal (z-score),[4],-0.576
same,glycan array binding signal (z-score),[5],-0.367
same,glycan array binding signal (z-score),[6],-0.434
same,glycan array binding signal (z-score),[7],0.218
same,glycan array binding signal (z-score),[8],-0.003
same,glycan array binding signal (z-score),[9],0.84
same,glycan array binding signal (z-score),[10],0.409
same,glycan array binding signal (z-score),[11],-0.379
same,glycan array binding signal (z-score),[12],0.083
same,glycan array binding signal (z-score),[13],0.569
same,glycan array binding signal (z-score),[14],-0.002
same,glycan array binding signal (z-score),[15],0.478
same,glycan array binding signal (z-score),[16],0.705
same,glycan array binding signal (z-score),[17],1.54
same,glycan array binding signal (z-score),[18],3.32
same,glycan array binding signal (z-score),[19],-0.107
same,glycan array binding signal (z-score),[20],0.224
same,glycan array binding signal (z-score),[21],-0.08
same,glycan array binding signal (z-score),[22],-0.278
same,glycan array binding signal (z-score),[23],0.015

# Source: the supplement of paper PMC8728848
